Assay results taken from the BET-seq Pho4 binding data (Le et al. 2018).
The other results are listed elsewhere or left out. The energies were worked out here from pooled read counts, against the library average; single values are noisy.

biological target: T1, Pho4 (S. cerevisiae) (UniProt P07270); test: relative binding free energy (BET-seq); higher = weaker binding; settings: reference: library average
T1 sequence: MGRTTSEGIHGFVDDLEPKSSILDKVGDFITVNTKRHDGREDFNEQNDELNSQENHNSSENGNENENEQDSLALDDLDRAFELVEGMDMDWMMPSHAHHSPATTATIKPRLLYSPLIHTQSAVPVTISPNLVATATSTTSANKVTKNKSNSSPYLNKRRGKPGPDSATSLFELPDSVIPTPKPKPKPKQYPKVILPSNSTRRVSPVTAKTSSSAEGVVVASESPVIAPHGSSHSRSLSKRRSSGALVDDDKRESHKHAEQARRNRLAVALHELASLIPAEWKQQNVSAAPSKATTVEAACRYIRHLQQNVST

Sequence | relative binding free energy
GTTTCCACGTGGGGAT | 0.12 kcal/mol
ATGTGCACGTGAGGGG | 0.23 kcal/mol
ATATGCACGTGGACAT | -0.05 kcal/mol
GGTGACACGTGGTTCT | -0.04 kcal/mol
CGGTTCACGTGTTTAT | 0.37 kcal/mol
CGGTCCACGTGTTGTT | 0.12 kcal/mol
GGAGTCACGTGTCCGT | 0.28 kcal/mol
GTGTTCACGTGGATCG | 0.3 kcal/mol
TTTATCACGTGTCTCG | 0.21 kcal/mol
TGGTGCACGTGTGGAC | 0.18 kcal/mol
GGAATCACGTGTTTGC | 0.31 kcal/mol
ATGCGCACGTGGGGTC | -0.33 kcal/mol
TTAGGCACGTGGGGGG | -0.21 kcal/mol
GTAACCACGTGTGGTT | 0.01 kcal/mol
GGGGTCACGTGGTGTA | 0.15 kcal/mol
GTCGGCACGTGTATAG | 0.01 kcal/mol
GACGACACGTGGTGGT | 0.04 kcal/mol
TAAGGCACGTGTGGCG | -0.11 kcal/mol
CTCGGCACGTGGTGTT | -0.17 kcal/mol
AGCTACACGTGGGAGT | 0.04 kcal/mol
TTTCACACGTGGCGTT | -0.03 kcal/mol
TTGGGCACGTGATAAG | 0.02 kcal/mol
GATCTCACGTGGGTTA | 0.15 kcal/mol
AATGACACGTGTTGTT | -0.08 kcal/mol
TGGGGCACGTGCGCGT | -0.24 kcal/mol
ATGAACACGTGTGGCG | 0.06 kcal/mol

Sequence | relative binding free energy
TATGTCACGTGACTTA | 0.15 kcal/mol
CTTGGCACGTGACATG | 0.05 kcal/mol
TAGAACACGTGAGTTG | 0.25 kcal/mol
GGTAACACGTGGTGGA | 0.02 kcal/mol
CGGCGCACGTGGGTTT | -0.25 kcal/mol
TAGTGCACGTGGGGTG | -0.2 kcal/mol
TTCGTCACGTGTTGCT | 0.02 kcal/mol
TTGAACACGTGGGTGC | -0.07 kcal/mol
TGTGGCACGTGGGGGT | -0.18 kcal/mol
ATGGTCACGTGCTGAT | 0.11 kcal/mol
AAGGGCACGTGACAGG | 0 kcal/mol
TTGGGCACGTGAACGT | 0.15 kcal/mol
GGTTGCACGTGGAGAT | 0.09 kcal/mol
TGGTGCACGTGCGATG | -0.09 kcal/mol
TAGGTCACGTGAAGTG | 0.32 kcal/mol
AGTTTCACGTGTTCTT | 0.16 kcal/mol
TGCGTCACGTGCGGGA | -0.12 kcal/mol
AATAGCACGTGTGTAT | -0.08 kcal/mol
GGATGCACGTGAGTAA | 0.31 kcal/mol
GGTATCACGTGACTGG | 0.33 kcal/mol
AGTGCCACGTGGATGG | -0.06 kcal/mol
AGGGTCACGTGGAGGA | 0.09 kcal/mol
GGAGGCACGTGTAGGA | -0.19 kcal/mol
TTGGACACGTGGCAAT | 0.11 kcal/mol
TGGTTCACGTGTCTCT | 0.31 kcal/mol
TGTTTCACGTGAATCG | 0.23 kcal/mol

Sequence | relative binding free energy
GTCTGCACGTGGATTT | 0.1 kcal/mol
GGTTTCACGTGTTGGG | 0.31 kcal/mol
AGAGGCACGTGTTCTG | -0.25 kcal/mol
TGTGTCACGTGGTGCC | 0.08 kcal/mol
TTTTTCACGTGATTAC | 0.18 kcal/mol
CGGGGCACGTGGATGG | -0.08 kcal/mol
TGGCGCACGTGGTAAT | -0.15 kcal/mol
TGCGTCACGTGTTTGA | -0.01 kcal/mol
ATTGCCACGTGGCGGG | -0.21 kcal/mol
TGGAGCACGTGTGCGA | -0.09 kcal/mol
AGTGGCACGTGAGGCT | -0.02 kcal/mol
GATGGCACGTGATAGG | 0.03 kcal/mol
TGTTGCACGTGGGAGT | 0.04 kcal/mol
TAAGGCACGTGAGTGT | 0.06 kcal/mol
GGTATCACGTGTGACT | 0.2 kcal/mol
GTGCTCACGTGTTGCG | 0.14 kcal/mol
AGATTCACGTGACGTT | 0.44 kcal/mol
TGTTACACGTGCTCGG | 0.07 kcal/mol
GTTGTCACGTGCAGTA | 0.1 kcal/mol
CAGTGCACGTGGGCTG | -0.3 kcal/mol
GTACTCACGTGGTTTA | 0.16 kcal/mol
TATTGCACGTGTGTGC | 0.05 kcal/mol
GTTTACACGTGCGTTA | 0.23 kcal/mol
AAGTGCACGTGTAGTC | 0.15 kcal/mol
CTTAACACGTGGGGAT | -0.12 kcal/mol
TATAACACGTGGGGTC | -0.02 kcal/mol

Sequence | relative binding free energy
CGGTGCACGTGTGCTT | 0 kcal/mol
TACGTCACGTGTAATT | 0.27 kcal/mol
ATCGGCACGTGTGGTG | 0.08 kcal/mol
GAGGTCACGTGGATCG | 0.17 kcal/mol
CTGTACACGTGGCGTA | 0.08 kcal/mol
TTTTCCACGTGAGCGT | 0.25 kcal/mol
TGAAGCACGTGCGCGG | -0.19 kcal/mol
TAGTACACGTGGAGGC | 0.1 kcal/mol
TGGTACACGTGGGCTA | -0.08 kcal/mol
AAAGGCACGTGGTTAA | -0.23 kcal/mol
TAGTTCACGTGCGTCG | 0.21 kcal/mol
ATGGACACGTGGGTGT | -0.15 kcal/mol
GCTTACACGTGTGTGC | 0.25 kcal/mol
TACGTCACGTGTTGTT | -0.01 kcal/mol
AGTCGCACGTGTGTTA | -0.06 kcal/mol
TTTGACACGTGGATGT | 0.08 kcal/mol
TGTTACACGTGGTAGA | -0.15 kcal/mol
ATTAGCACGTGATAGA | 0.08 kcal/mol
TTATACACGTGGTGGT | -0.04 kcal/mol
ATTGTCACGTGGGGTG | -0.04 kcal/mol
CGGTACACGTGTCGGT | 0.12 kcal/mol
CGAAGCACGTGAGGGG | 0.12 kcal/mol
ATTGTCACGTGCTTAT | -0.01 kcal/mol
GCAGGCACGTGGGAGC | -0.08 kcal/mol
ATGTACACGTGTCTGG | -0.03 kcal/mol
TCGAACACGTGGAGGG | 0.04 kcal/mol

Sequence | relative binding free energy
TGATTCACGTGGGCGC | 0.19 kcal/mol
TGATGCACGTGATTAT | 0.17 kcal/mol
AGTGACACGTGTGTAA | 0.02 kcal/mol
GCTTGCACGTGGGGAG | -0.03 kcal/mol
AGTGGCACGTGGAGTT | -0.11 kcal/mol
GGCTACACGTGTTGTC | 0.35 kcal/mol
TAGTCCACGTGGGCGG | -0.26 kcal/mol
TTATGCACGTGATCGT | 0 kcal/mol
TGGGGCACGTGTTACT | -0.11 kcal/mol
CTTTTCACGTGCAGGG | 0.23 kcal/mol
ATTAGCACGTGAGGAT | 0.05 kcal/mol
GTGTTCACGTGAAGAT | 0.45 kcal/mol
GGCTGCACGTGGTGAT | -0.03 kcal/mol
ATAGTCACGTGTTAAT | 0.04 kcal/mol
AGGAACACGTGGGGTA | -0.06 kcal/mol
TATTGCACGTGGTAGC | 0.05 kcal/mol
GCGTACACGTGTGGTA | 0.17 kcal/mol
TTAGGCACGTGTAACT | -0.02 kcal/mol
CATATCACGTGGGGTT | -0.06 kcal/mol
GTTGTCACGTGAGATT | 0.38 kcal/mol
CGGTTCACGTGGGTTA | 0.04 kcal/mol
AATTTCACGTGTGGTG | 0.39 kcal/mol
TATGGCACGTGTGGTC | -0.11 kcal/mol
TTGGACACGTGTATGT | 0.04 kcal/mol
GCAAACACGTGGGGGT | -0.15 kcal/mol
GGTTGCACGTGGATCA | 0.04 kcal/mol

Sequence | relative binding free energy
ATTGGCACGTGTTGAG | -0.11 kcal/mol
TGTGGCACGTGGTTCC | -0.17 kcal/mol
TAGTTCACGTGTGGAC | 0.21 kcal/mol
GTCTTCACGTGTTGAG | 0.39 kcal/mol
AGCGTCACGTGGTAGG | 0.1 kcal/mol
GTAGTCACGTGGAAAT | 0.15 kcal/mol
GTTTTCACGTGTCGTC | 0.29 kcal/mol
TCTGGCACGTGTCAGG | -0.05 kcal/mol
ATTCGCACGTGCGGTT | -0.02 kcal/mol
GCAGGCACGTGACGGT | 0.16 kcal/mol
TCATACACGTGATTGG | 0.18 kcal/mol
GATATCACGTGGTTGC | 0.32 kcal/mol
TGTTGCACGTGTGACT | 0.17 kcal/mol
ATAAGCACGTGGCGGG | -0.16 kcal/mol
AGTTTCACGTGAGGTG | 0.39 kcal/mol
TACTGCACGTGGGGTT | -0.16 kcal/mol
TCGGTCACGTGGAGAT | 0.24 kcal/mol
TGGGTCACGTGTTACG | 0.13 kcal/mol
ATAGGCACGTGGGGAA | -0.32 kcal/mol
TTTTACACGTGGGGGG | 0 kcal/mol
GGTGTCACGTGAAAGA | 0.33 kcal/mol
TTGTTCACGTGCGCGG | 0.27 kcal/mol
GGTTCCACGTGGTTAG | 0.02 kcal/mol
TGGTTCACGTGCAGAA | 0.28 kcal/mol
TGTAACACGTGGGGAG | -0.05 kcal/mol
GTTTTCACGTGAAGTG | 0.59 kcal/mol

Sequence | relative binding free energy
ATGGCCACGTGTAAGT | 0.01 kcal/mol
GATGTCACGTGGCAGT | 0.11 kcal/mol
TTGCACACGTGATGGT | 0.26 kcal/mol
TGTATCACGTGACTAT | 0.29 kcal/mol
CCTTGCACGTGGAGGT | -0.08 kcal/mol
CTTGTCACGTGGAGGC | 0.07 kcal/mol
TGGTGCACGTGGCAAG | -0.08 kcal/mol
CGGTGCACGTGCCGGT | -0.18 kcal/mol
TTGCGCACGTGTGTCG | -0.03 kcal/mol
TGGATCACGTGTAGCT | 0.12 kcal/mol
CGATCCACGTGGGTGT | -0.02 kcal/mol
AAGGACACGTGATATG | 0.1 kcal/mol
AGTTGCACGTGTGTTA | 0.17 kcal/mol
GTTGACACGTGTATTG | 0.09 kcal/mol
GCGTTCACGTGTTGAG | 0.18 kcal/mol
AAGGGCACGTGTTGGA | 0.02 kcal/mol
TGATGCACGTGAGTTA | 0.12 kcal/mol
GCTTGCACGTGTGGCG | -0.04 kcal/mol
TGGATCACGTGATAGA | 0.18 kcal/mol
AGCGGCACGTGTAGGA | 0.17 kcal/mol
TGGGGCACGTGATCAT | -0.21 kcal/mol
TAGGCCACGTGGGTGC | -0.06 kcal/mol
ATTGCCACGTGGGTAG | -0.27 kcal/mol
GAAGACACGTGGCGGG | -0.07 kcal/mol
GGGATCACGTGCGGGC | 0.18 kcal/mol
TGGCTCACGTGATGAG | 0.28 kcal/mol

Sequence | relative binding free energy
TATTTCACGTGCGCGG | 0.15 kcal/mol
TTGATCACGTGTTTCG | 0.23 kcal/mol
TGTGTCACGTGATTCA | -0.07 kcal/mol
GTCCGCACGTGGGGTG | -0.24 kcal/mol
AAGTTCACGTGGTGTC | 0.1 kcal/mol
TTTCGCACGTGTAATT | 0.11 kcal/mol
AGAATCACGTGTTCTG | 0.16 kcal/mol
TTAGTCACGTGAGTAC | 0.24 kcal/mol
TTAGGCACGTGTCTTA | -0.13 kcal/mol
GTTGGCACGTGGGCGC | -0.14 kcal/mol
ATGCTCACGTGTTGAA | 0.25 kcal/mol
CTGCTCACGTGTAGTG | 0.27 kcal/mol
GGCTTCACGTGGGATG | 0.22 kcal/mol
TGTTACACGTGGTACG | 0.01 kcal/mol
GTGCTCACGTGGCGGG | 0.12 kcal/mol
TAGTTCACGTGATGCA | 0.35 kcal/mol
TGGTACACGTGAAGTT | 0.35 kcal/mol
TCAGGCACGTGGTCGT | -0.09 kcal/mol
GAAGCCACGTGGTTGT | -0.06 kcal/mol
ATTGCCACGTGTTTTA | -0.16 kcal/mol
GCCTTCACGTGTAGGT | 0.15 kcal/mol
TGGCTCACGTGACGGG | 0.11 kcal/mol
TAGTTCACGTGCGGGG | 0.33 kcal/mol
TGCTTCACGTGTGCGT | 0.14 kcal/mol
GAAAACACGTGGTTTT | 0.11 kcal/mol
GGGGTCACGTGGTGAT | 0.21 kcal/mol

Sequence | relative binding free energy
ACGAACACGTGTGGTG | -0.02 kcal/mol
TGCGGCACGTGGGATC | -0.15 kcal/mol
AGTTTCACGTGAGGCA | 0.38 kcal/mol
GCGGGCACGTGGTCGT | -0.31 kcal/mol
GATGGCACGTGGGGGG | -0.19 kcal/mol
TCGGACACGTGCGTGT | -0.1 kcal/mol
AGAGACACGTGTGCGG | -0.01 kcal/mol
ATGCTCACGTGGGTGG | 0.05 kcal/mol
GATTTCACGTGATTTA | 0.37 kcal/mol
TCATGCACGTGATCGT | 0.13 kcal/mol
TAACGCACGTGTGTGA | -0.1 kcal/mol
CGTAACACGTGGGTTG | -0.09 kcal/mol
TTTTGCACGTGGTAGG | -0.06 kcal/mol
ATATTCACGTGAAATA | 0.39 kcal/mol
TTTAACACGTGTGGAT | 0.07 kcal/mol
TTTGACACGTGTAATT | 0.2 kcal/mol
GATCTCACGTGTTAGT | 0.39 kcal/mol
GGTAACACGTGGCTGT | 0 kcal/mol
GGTGACACGTGGTCAG | 0.08 kcal/mol
CTTTGCACGTGCGGTA | -0.17 kcal/mol
TGTGGCACGTGAGTCG | 0.17 kcal/mol
GTTTTCACGTGAGGGT | 0.4 kcal/mol
